Measured values: article PMC4336329 (PLoS ONE, 2015)
The campaign covered roughly 310,000 compounds. About 14,000 (4.5%) showed an effect of 50% or more. Effects have a minus sign here. Some of the results follow.

Target: human ether-à-go-go-related gene (hERG) potassium channel (human, UniProt Q12809)
Assay: primary screen, population patch clamp on CHO cells stably expressing hERG
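Note: peak tail current of the secondary pulse compared with the same well before compound.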

human ether-à-go-go-related gene (hERG) potassium channel, sequence (Q12809 whole entry, looked up): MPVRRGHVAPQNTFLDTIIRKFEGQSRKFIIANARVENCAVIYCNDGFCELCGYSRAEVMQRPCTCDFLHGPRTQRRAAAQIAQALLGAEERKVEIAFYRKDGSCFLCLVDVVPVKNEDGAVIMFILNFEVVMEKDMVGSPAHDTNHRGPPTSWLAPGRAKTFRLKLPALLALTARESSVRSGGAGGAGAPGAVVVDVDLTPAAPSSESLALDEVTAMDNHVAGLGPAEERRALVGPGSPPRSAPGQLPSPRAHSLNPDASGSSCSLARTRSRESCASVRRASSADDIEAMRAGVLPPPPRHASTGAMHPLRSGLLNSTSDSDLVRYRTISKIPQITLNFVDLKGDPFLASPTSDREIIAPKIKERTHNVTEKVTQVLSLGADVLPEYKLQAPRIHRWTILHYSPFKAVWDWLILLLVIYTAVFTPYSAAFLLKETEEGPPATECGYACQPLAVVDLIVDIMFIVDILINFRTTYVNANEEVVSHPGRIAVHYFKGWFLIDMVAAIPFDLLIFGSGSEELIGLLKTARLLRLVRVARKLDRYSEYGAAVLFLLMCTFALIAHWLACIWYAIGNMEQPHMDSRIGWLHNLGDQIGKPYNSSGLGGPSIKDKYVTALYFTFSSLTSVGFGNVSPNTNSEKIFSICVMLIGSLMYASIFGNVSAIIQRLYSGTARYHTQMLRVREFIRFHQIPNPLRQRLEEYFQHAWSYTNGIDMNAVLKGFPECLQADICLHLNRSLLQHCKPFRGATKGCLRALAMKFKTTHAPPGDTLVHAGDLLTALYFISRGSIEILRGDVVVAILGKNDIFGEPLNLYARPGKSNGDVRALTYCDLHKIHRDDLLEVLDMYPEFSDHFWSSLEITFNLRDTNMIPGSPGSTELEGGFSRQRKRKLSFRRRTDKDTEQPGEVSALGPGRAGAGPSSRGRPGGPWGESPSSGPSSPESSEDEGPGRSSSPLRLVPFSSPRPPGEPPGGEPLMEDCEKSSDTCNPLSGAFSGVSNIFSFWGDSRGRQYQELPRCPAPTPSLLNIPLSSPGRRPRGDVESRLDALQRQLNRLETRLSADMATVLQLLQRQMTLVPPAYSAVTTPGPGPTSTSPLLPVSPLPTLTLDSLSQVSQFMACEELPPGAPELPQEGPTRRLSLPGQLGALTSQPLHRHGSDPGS

SMILES	hERG current change (%, negative = inhibition) at 10uM [%]
COCC(C)NS(=O)(=O)c1ccc(C(=O)NCCCn2ccc3ccccc32)cc1 (centres unmarked)	27.3
Cc1cccc(NC(=O)CC2CCC2)c1	3.28
CC1CCCN(C(=O)c2ccc(COc3ccccc3Br)cc2)C1 (centres unmarked)	3.98
NC(=O)C1CCN(CC(=O)c2c[nH]c3ccc(F)cc23)CC1	-3.34
CC(C)CCNCC(=O)NC(c1ccccc1)c1ccccc1.Cl	-21.9
CN1C(=O)C(c2ccccc2[N+](=O)[O-])C(=O)c2ccccc21 (centres unmarked)	4.68
C(=C\c1ccccc1)/CN1CCN(Cc2ccc3c(c2)OCO3)CC1	-43.9
CC1(C)Cc2ccccc2-c2nnnn21	-0.0387
Cc1ccc(CSCC(N)C(=O)O)cc1 (centres unmarked)	12.1
CC(C)NC(=O)C(c1ccc(F)cc1)N(Cc1ccco1)C(=O)CCC(=O)Nc1ccccn1 (centres unmarked)	0.583
CCn1c(C(=O)O)c(CC(=O)N(C)c2ccc(OC)cc2OC)c2ccccc21	16
O=C(CNC1CCCCC1)Nc1cccc(C(F)(F)F)c1	7.53
Cc1ccc(-c2cc(C(=O)OCC(=O)N(C)c3c(N)n(Cc4ccccc4)c(=O)[nH]c3=O)c3ccccc3n2)o1	-4.68
CC(C)c1ccc(NC(=O)C2CCCN(S(=O)(=O)c3cccnc3)C2)cc1 (centres unmarked)	20.6
CC(C)C[C@H](NC(=O)N1CC(=O)Nc2ccccc21)C(=O)N[C@H](Cc1c[nH]c2ccccc12)C(=O)O	12
C=CCn1cnc2sc(C(=O)Nc3ccccc3OC)c(C)c2c1=O	6.42
O=C(COC(=O)c1ccccc1)Nc1cc(Cl)ccc1Oc1ccccc1	2.05
CC(NS(=O)(=O)c1ccc(Br)cc1)C(=O)NCC1CCCO1 (centres unmarked)	18.9
COc1ccc(-c2nnn(CC(=O)c3ccc4c(c3)OCCO4)n2)cc1OC	9.3
O=C1CSC(c2ccccc2)N1c1cccnc1 (centres unmarked)	4.34
CC(C)(C)C(=O)Nc1cccc(C(=O)c2cccc(NC(=O)C(C)(C)C)c2)c1	-7.46
O=C(CSc1nc2ccccc2s1)NCCCN1CCOCC1	-0.982

SMILES	hERG current change (%, negative = inhibition) at 10uM [%]
CCC(C)(C)C1CCc2[nH]nc(C(=O)NCC3CC3)c2C1 (centres unmarked)	-6.67
O=C(Nc1ccc(Cl)cc1)c1cc(S(=O)(=O)Nc2ccccn2)ccc1Cl	-2.04
CC(C)(C)N1CC2([N+](=O)[O-])CN(C(C)(C)C)CC([N+](=O)[O-])(C1)C2	7.44
CCCCn1c(SCC(=O)N2c3ccccc3Sc3ccccc32)nc2c1c(=O)n(C)c(=O)n2C	-23.5
COc1ccc(S(=O)(=O)Nc2ccc(C)cn2)cc1	-5.21
Cc1ccccc1OCCn1c(=O)sc2ccccc21	6.79
CCOC(=O)[C@H]1[C@H]2COc3ccc(C)cc3[C@@H]2N2C(=O)CN(Cc3ccccc3)C(=O)[C@@]12C	-20.8
CCS(=O)(=O)c1ccc2c(c1)N(S(=O)(=O)c1ccc(OC)cc1)CC(C(=O)O)O2 (centres unmarked)	17.7
O=S(=O)(NCCN1CCCC1)c1ccc(Br)cc1	-8.08
C=C(C)CSC1=C(C#N)C(c2ccccc2)CC(=O)N1 (centres unmarked)	-5.21
O=C(CN1CCN(CC(=O)Nc2ccccc2Cl)CC1)Nc1ccc2c(c1)OCCO2	-68.7
COc1ccccc1NS(=O)(=O)c1ccc(C)c(NC(=O)NC2CCCCC2)c1	-2.19
Cc1ccc(C(=O)NCC(=O)OCc2nnc(-c3ccc([N+](=O)[O-])cc3)o2)s1	-67.3
CCCCN(C)C(=O)C1CCC(CNS(=O)(=O)c2ccc3c(c2)CC(C)N3C(C)=O)CC1 (centres unmarked)	13.1
Cc1nn(Cc2ccccc2)c(Cl)c1/C=N/NC(=O)CNc1cccc(C(F)(F)F)c1	6.67
O=C(NNC(=S)NC(=O)c1ccccc1)c1ccc([N+](=O)[O-])cc1	6.61
CCN(CC)C(=O)c1cc(Cl)ccn1	19.5
COC(=O)C1=C(c2ccc(S(C)(=O)=O)cc2)C[C@@H]2CC[C@H]1N2C(=O)NCCS(C)=O (some centres unmarked)	14.4
Cn1c(=O)c2c(nc(N3CCCCC3)n2CCSc2nc3ccccc3s2)n(C)c1=O	0.621
O=S(=O)(NCC(c1ccco1)N1CCN(c2ccccc2F)CC1)c1ccc(F)cc1 (centres unmarked)	-11.2
Cc1ccc(C(=O)N2CCN(S(=O)(=O)c3ccc(Br)cc3)CC2)o1	-9.06
C=CCOc1ccc(/C=C2/C(=O)ON=C2C)cc1OCC	17.5

SMILES	hERG current change (%, negative = inhibition) at 10uM [%]
Clc1ccc(/C=N/Nc2nnc(Cl)c3ccccc23)cc1	1.01
COc1ccc(N2CCN(c3oc(COc4ccccc4)nc3C#N)CC2)cc1	-26.6
CSc1nnc(-c2ccc(F)cc2)o1	17
O=S(=O)(Nc1ccc(N2CCCCC2)cc1)c1ccc(F)c(F)c1	-7.75
COc1cc(-n2c(C)nc3cccnc32)c(Cl)cc1C(=O)O	11.4
O=C(Nc1cccc(S(=O)(=O)N2CCCCCC2)c1)c1cc(=O)c2ccccc2o1	-14.6
Cc1cccc2cc(CN(Cc3nnnn3C3CCCCC3)C3CCCC3)c3nnnn3c12	6.38
CCC1CCCCN1c1nc2c(C=O)c(C)nn2c2ccccc12 (centres unmarked)	-12
O=C(O)CCCCCN=Cc1c(O)c2ccccc2oc1=O	17.9
CCCCN(CC)CCNC(=O)c1cc2c(C)nc3ccccc3c2o1	-53.5
CC1=NN(c2ccc(Cl)cc2)C(=O)C1C(c1ccccc1O)c1c(C)[nH]n(-c2ccc(Cl)cc2)c1=O (centres unmarked)	5.69
COc1ccccc1-c1nc(-c2ccccc2)[nH]c(=O)c1C#N	10.1
CCCCC1(C)NC(=O)N(CC(=O)Nc2cc(S(=O)(=O)N3CCOCC3)ccc2Cl)C1=O (centres unmarked)	-25.4
COc1ccc(C(=O)Nc2ccc(Cl)cn2)cc1S(=O)(=O)N1CCCC1	-48
Brc1cc(Br)c2nc(-c3cccs3)ccc2c1	12.8
Cc1cc(C(=O)CCC(=O)Nc2ncccc2C)c(C)s1	-8.62
Cc1ccc(C2c3[nH]c4ccccc4c3C[C@H]3C(=O)N(c4ccccc4C(=O)NCCCN4CCOCC4)C(=O)N23)cc1 (some centres unmarked)	-54.6
Nc1nc(-c2cc(Cl)cc(Cl)c2OC(F)F)cs1	5
CS(=O)(=O)NCCNc1ncc(C(F)(F)F)cc1Cl	25.8
CCCN1CCN(C(=O)c2cc(COc3ccc4ncccc4c3)on2)CC1	-9.2
Cc1cccc(-c2nc3ccccc3c(=O)n2NC(=O)c2cccnc2Cl)c1	15.6
Cc1cccc(N(CC(=O)NCc2ccco2)C(=O)CCC(=O)Nc2ccccn2)c1C	-29.8

SMILES	hERG current change (%, negative = inhibition) at 10uM [%]
O=S(=O)(/N=C(/Nc1cc(N2CCOCC2)ncn1)c1ccccc1)c1ccccc1	-9.71
Cc1nnc(SCc2ccc(F)cc2)n1NC/C=C/c1ccccc1	-18.6
O=C(CNC(=O)c1ccccc1F)NCCCN1CCCC1=O	3.07
Cc1onc(-c2ccccc2)c1-c1csc(N/N=C/c2ccccc2)n1	8.79
Cc1cccc(NC(=O)c2ccc(C3SCC(=O)N3CCc3ccccc3)cc2)c1 (centres unmarked)	11
O=C(Nc1nccs1)c1ccc(Br)c(S(=O)(=O)N2CCCC2)c1	7.98
CC(C)=C(NC(=O)c1ccccc1)C(=O)Nc1cccc(C)c1	15.9
COc1ccc(-c2cc(C(F)(F)F)n3nc(C(=O)N4CCC5(CC4)OCCO5)cc3n2)cc1OC	-1.59
CC(=O)Nc1ccc(S(=O)(=O)N2CCN(C(=O)c3cccnc3)CC2)cc1	-1.06
CCNc1nc(SCC(=O)Nc2ccc(Cl)c(Cl)c2)nc(N(C)C)n1	14.8
CCc1c(C)nc2c(OC)cccc2c1SCCC(=O)O	-1.31
Cc1cc2nc(/C=C/c3cccnc3)[nH]c2cc1C	-11.6
COc1cccc(C(=O)O[C@@H]2[C@H](Cc3ccccc3)NS(=O)(=O)[C@H]3C[C@@H]4C=C[C@]23O4)c1	5.45
Cc1c(C(=O)O)sc2nc3n(c(=O)c12)CCCCC3	9.43
Nc1nccc(/C=C/c2ccc(Cl)cc2)n1	3.28
Clc1cccc(N/N=C(\Cc2nc3ccccc3[nH]2)c2ccccc2)c1	2.01
CCN(CC(=O)Nc1c(F)cccc1F)C(=O)c1ccc(Cl)c(S(=O)(=O)N2CCCC2)c1	-1.4
COC1CCN(C(=O)c2cc(COc3ccc(-n4cncn4)cc3)on2)CC1	-18.6
Cc1ccc(S(=O)(=O)N2Cc3ccccc3CC2C(=O)NC(C)(C)C)cc1 (centres unmarked)	3.23
N#C/C(=C\c1ccccc1[N+](=O)[O-])C(=O)NCc1ccccc1	-12.2
